Test results published in PubChem BioAssay AID493208 (National Center for Advancing Translational Sciences (NCATS), 2011).
Screen size: about 44,000 compounds; about 340 (0.77%) were called active. Not shown: some 5% with an inconclusive outcome. Calls follow the shape of the dose curve; as a rule, active = well fitted inhibition curve with a large enough effect; inconclusive = small, poorly fitted or top-dose-only effect; inactive = flat fitted curve, though single readings scatter. This is one part of the list.

Assay: Acumen qHTS Assay for Inhibitors of the mTORC1 Signaling Pathway in MEF (Tsc2-/-, p53-/-) Cells: Sytravon;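 also: plate controls were DMSO for no effect and rapamycin for full effect; nearly all actives have a fitted effect of over 50% in size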
Conditions: phospho-rpS6 immunofluorescence/PI, 24 h; series mostly up to 38.3 µM; activity change, negative = inhibition: at the top concentration
Procedure, shortened: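 Immunofluorescence of rpS6 phosphorylation in Tsc2-/-, p53-/- MEFs after 24 h compound exposure, normalized to propidium iodide signal. Activity is expressed as % positive cells, thresholded with 7.5 nM rapamycin.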

Row | SMILES | activity change, negative = inhibition
1 | COc1ccc(-c2c(C)nn3c(C(F)(F)F)cc(-c4ccccc4)nc23)cc1 | inactive: -4.33%
2 | COc1ccc(OC)c(NC(=O)c2cc(C3CC3)nc3c2c(C)nn3-c2ccc(C)cc2)c1 | inactive: 2.47%
3 | O=C(Cn1cc(SCc2ccccc2F)c2ccccc21)N1CCCCC1 | inactive: -13.5%
4 | Cc1cc(C)cc(NC(=O)Cc2c(C(=O)O)c(C)cn2C)c1 | inactive: -1.4%
5 | O=C(NCc1ccco1)c1ccc2c(c1)N(Cc1c(F)cccc1Cl)C(=O)c1ccccc1S2 | inactive: -1.76%
6 | COc1ccc(C(=O)NCc2ccc3c(c2)CCN3C(=O)c2ccc(C)cc2)cc1 | inactive: -10.2%
7 | CCOc1ccc(-n2c(=O)c3c4c(sc3n(CC(=O)NC(C)CC)c2=O)CCCC4)cc1 (configuration not stated) | inactive: 1.84%
8 | CC(=O)c1cccc(NC(=O)C2CCN(S(=O)(=O)c3ccc4[nH]c(=O)ccc4c3)CC2)c1 | inactive: -1.8%
9 | Cc1ccc(CNC(=O)C2CCN(Cc3nc(-c4cccc(Br)c4)oc3C)CC2)cc1 | inactive: 10.5%
10 | Cc1ccc(-n2nc3ccc(NC(=O)COc4ccccc4)cc3n2)cc1Cl | inactive: -7.8%
11 | Cc1cccc(-n2c(=O)c3ccccc3n(Cc3ccccc3)c2=O)c1 | inactive: -6.46%
12 | O=C(CSc1nc2c([nH]c3ccccc32)c(=O)n1-c1cccc(C(F)(F)F)c1)N1CCc2ccccc21 | inactive: 0.845%
13 | CCc1cc2c(cc(C(=O)OC)n2Cc2nc(-c3ccc(C)cc3)oc2C)s1 | inactive: -0.231%
14 | CCOc1ccc(N(CC)C(=O)c2nn(-c3ccc(OC)cc3)c(=O)c3c2c2ccccc2n3C)cc1 | inactive: -7.1%
15 | O=C(O)c1ccc(CNCc2ccccc2Cl)s1 | inactive: -1.9%
16 | CCc1ccc(C(=O)N2CCC(c3nc(-c4ccc(S(=O)(=O)N5CCCC5)cc4)no3)CC2)cc1 | inactive: 0.445%
17 | O=S(=O)(c1ccc(Br)cc1)c1nnn2c1nc(NCc1ccc3c(c1)OCO3)c1sccc12 | inactive: -1.2%
18 | Cc1cccc(CNC(=O)c2ccc3oc(=O)n(Cc4ccccc4)c3c2)c1 | inactive: -0.083%
19 | CCCSc1ncc(Cl)c(C(=O)Nc2c(C(=O)Nc3ccc(OC)cc3)oc3ccccc23)n1 | inactive: -1.62%
20 | COc1cc(Cl)c(C)cc1NC(=O)Cn1ncc2c1-c1cc(C)ccc1OC2 | inactive: 0.425%
21 | Cc1ccc(CNC(=O)CCCCCn2c(=O)c3sccc3n(CC(=O)Nc3c(C)cc(C)cc3C)c2=O)cc1 | inactive: 3.36%
22 | COc1ccc(C(=O)Nc2nnc(SCc3cc(=O)n4cccc(C)c4n3)s2)cc1 | inactive: -19.2%
23 | CC1CCCN(Cc2nc3c(c(=O)n(C)c(=O)n3C)n2Cc2ccc(Cl)cc2)C1 (configuration not stated) | inactive: 1.06%
24 | O=C(Nc1cc(Cl)ccc1Cl)c1cc2nc(-c3ccc4c(c3)OCO4)cc(C(F)(F)F)n2n1 | inactive: 0.644%

Row | SMILES | activity change, negative = inhibition
25 | CSc1ccc(CNC(=O)C2CCN(c3nc4ccccc4nc3C(F)(F)F)CC2)cc1 | inactive: -1.92%
26 | COc1ccc(Cl)cc1NC(=O)C1CCN(S(=O)(=O)c2ccc3c(c2)CC(C)N3C(C)=O)CC1 (configuration not stated) | inactive: -4.34%
27 | Cn1nc(C(=O)NCc2ccccc2Cl)c2c1-c1ccccc1S(=O)(=O)C2 | inactive: -19.6%
28 | Cc1cc(C)cc(NC(=O)CSc2oc(-c3ccco3)nc2S(=O)(=O)c2ccc(Cl)cc2)c1 | inactive: -21.1%
29 | Cc1cc(C)c(S(=O)(=O)N2CCC(N3CCN(Cc4ccccc4)C(=O)C3=O)CC2)c(C)c1 | inactive: -12.4%
30 | COc1ccc2c(c1)c1c(c(=O)n(-c3ccccc3C)c(=O)n1C)n2C | inactive: -12.8%
31 | COc1ccc(Nc2cc(C)c3cc(NC(=O)Cc4ccc(Cl)cc4)ccc3n2)cc1 | inactive: -11.2%
32 | Cc1ccc(Cl)cc1N1CCN(c2ncnc3c2nc2n3CCCCC2)CC1 | inactive: 1.97%
33 | CCCCNC(=O)C1CCN(c2nc3ccccc3nc2C(F)(F)F)CC1 | inactive: 6.34%
34 | COc1ccc(-n2ncc(C(=O)N3CCN(c4cc(C)ccc4C)CC3)c2C2CCN(C(=O)OC(C)(C)C)CC2)cc1 | inactive: 0.297%
35 | COc1ccc(CNCc2c(C(=O)O)c(C)n(Cc3ccccc3C)c2C)c(OC)c1 | inactive: -5.94%
36 | O=C(CSc1cn(CCNC(=O)c2c(F)cccc2F)c2ccccc12)Nc1ccc(F)cc1 | inactive: 2.85%
37 | Cc1nnc(NC(=O)CSc2nccn2Cc2ccc(Cl)cc2)s1 | inactive: -3.61%
38 | CCc1ccccc1NC(=O)Cc1ccc(NC(=O)N2CCCCc3ccccc32)cc1 | inactive: -11.9%
39 | Cc1nc2nc(NC(=O)CC(C)C)[nH]n2c(=O)c1Cc1ccccc1 | inactive: -10.4%
40 | COc1ccc(C)cc1NC(=O)c1cc2c(=O)n(Cc3cccnc3)ccc2nc1C | inactive: -5.83%
41 | Cc1ccc(-c2c(C(=O)N3CCN(c4cc(Cl)ccc4C)CC3)oc(=O)c3ccccc23)cc1 | inactive: -5.72%
42 | O=C(Nc1ccc(F)c(Cl)c1)N1CCC2(CC1)Oc1ccccc1C(=O)N2Cc1ccccc1F | inactive: 4.49%
43 | CCc1nnc(SCC(=O)Nc2cc(OC)ccc2OC)nc1CC | inactive: 4.18%
44 | CCN(Cc1ccccc1)C(=O)c1cc2c(=O)[nH]c3ccc(C)cc3c2s1 | inactive: -3.68%
45 | Cc1cccc(Cn2c(COc3ccc(Cl)cc3)nc3ccccc32)c1 | inactive: -16.4%
46 | CCOc1ccc(S(=O)(=O)N(CC(=O)NCCSc2ccc(C)cc2)c2ccccc2)cc1 | inactive: -17.6%
47 | Cc1ccc(NC(=O)N2CCN(c3ccc(Cl)c(Cl)c3)CC2)cc1 | inactive: -19.7%
